In PubChem BioAssay AID720708 (National Center for Advancing Translational Sciences (NCATS), 2013):
Screen size: about 360,000 compounds; about 660 (0.18%) were called active. This list was built around the results that the source calls inconclusive (neither active nor inactive); the mix of calls is not that of the screen. The call rests on the fitted dose curve; in most records, active means well fitted inhibition curve with a large enough effect; inconclusive means small, poorly fitted or top-dose-only effect; inactive means no such curve, though single readings can be large or run the other way. No potency is given beside an inconclusive call; the fits are too rough.

molecular target: Rap guanine nucleotide exchange factor 4 (Homo sapiens) (UniProt Q8WZA2); assay: qHTS for Antagonist of cAMP-regulated guanine nucleotide exchange factor 2 (EPAC2): primary screen; settings: EPAC2 GEF exchange of Rap1B-BODIPY-GDP, fluorescence; activity, negative = inhibition: at 114 µM (top of the series) unless noted; further: nearly all actives have a fitted effect of over 45% in size
Chain of UniProt Q8WZA2 (Q8WZA2 whole entry, looked up): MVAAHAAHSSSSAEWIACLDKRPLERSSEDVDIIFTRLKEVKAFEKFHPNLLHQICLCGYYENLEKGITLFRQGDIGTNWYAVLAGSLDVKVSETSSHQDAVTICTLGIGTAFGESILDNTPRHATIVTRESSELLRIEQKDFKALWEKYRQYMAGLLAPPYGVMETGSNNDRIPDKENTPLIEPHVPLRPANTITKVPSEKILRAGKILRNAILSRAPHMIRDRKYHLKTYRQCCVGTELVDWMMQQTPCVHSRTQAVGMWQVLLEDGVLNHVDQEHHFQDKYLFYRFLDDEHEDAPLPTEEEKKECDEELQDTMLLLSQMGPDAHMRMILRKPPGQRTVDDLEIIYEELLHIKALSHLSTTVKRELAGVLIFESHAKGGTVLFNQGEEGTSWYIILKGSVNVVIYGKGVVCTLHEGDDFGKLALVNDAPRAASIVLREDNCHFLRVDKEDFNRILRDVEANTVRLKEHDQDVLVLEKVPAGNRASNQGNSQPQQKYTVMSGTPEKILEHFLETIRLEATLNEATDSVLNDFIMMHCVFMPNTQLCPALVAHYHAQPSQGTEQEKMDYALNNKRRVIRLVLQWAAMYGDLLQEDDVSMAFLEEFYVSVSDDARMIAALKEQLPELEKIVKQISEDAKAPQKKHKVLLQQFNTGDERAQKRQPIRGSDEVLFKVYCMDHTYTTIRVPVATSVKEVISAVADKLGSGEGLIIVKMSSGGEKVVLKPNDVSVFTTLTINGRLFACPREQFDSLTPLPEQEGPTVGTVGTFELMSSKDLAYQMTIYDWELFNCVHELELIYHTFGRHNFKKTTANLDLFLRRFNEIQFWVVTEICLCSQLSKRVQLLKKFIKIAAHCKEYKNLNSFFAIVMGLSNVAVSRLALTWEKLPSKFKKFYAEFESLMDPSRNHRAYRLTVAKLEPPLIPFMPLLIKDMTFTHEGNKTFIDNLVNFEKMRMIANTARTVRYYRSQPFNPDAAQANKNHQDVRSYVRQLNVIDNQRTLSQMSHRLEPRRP
Excerpt: In multi-cellular eukaryotic organisms, the effects of cAMP are transduced by two ubiquitously-expressed intracellular cAMP receptors, the classic protein kinase A/cAMP-dependent protein kinase (PKA/cAPK) and the more recently discovered exchange protein directly activated by cAMP/cAMP-regulated guanine nucleotide exchange factor (EPAC/cAMP-GEF). Both PKA and EPAC are ubiquitously expressed in all tissues, and an increase in intracellular cAMP levels will lead to the activation of both PKA and EPAC. Therefore, careful dissections of the individual role and relative contribution of EPAC and PKA within the overall cAMP signaling in various model systems are critical for further elucidating the mechanism of cAMP signaling. To date no EPAC-specific antagonists and agonist, as well as isoform-specific agonists have been reported, and developing EPAC-specific pharmacological probes to determine the physiological functions that EPAC play in the overall cAMP-mediated signaling remains a major challenge within the research field. Furthermore, identified regulators of EPAC may lead to new mechanism-based therapeutic strategies specifically targeting the EPAC / cAMP-signaling components as EPAC has been implicated to play important roles in major human pathological conditions such as diabetes, heart disease, and cancer.
This qHTS will be used to screen the Molecular Libraries Small Molecule Repository (MLSMR) as a concentration-titration series using the NCGC unique quantitative screening (qHTS) platform to find inhibitors for EPAC2. In addition, this assay will also be used as a counterscreen for the EPAC1 qHTS. This fluorescent based assay is developed and validated for EPAC2 that measures exchange using EPAC effector Rap1 complex with BODIPY-GDP, a GDP analog with a tethered fluorophores. Inhibitors are identified by monitoring the change in fluorescence signal as the exchanged free BODIPY-GDP has a reduced fluorescence compared to Rap1-bound BODIPY-GDP. Decrease in signal (inhibition) is the desired outcome for the EPAC2 antagonist while no activity in this assay is desired for the EPAC1 antagonist counterscreen.
NIH Chemical Genomics Center [NCGC]
NIH Molecular Libraries Probe Centers Network [MLPCN]
Assay Submitter (PI): Xiaodong Cheng, The University of Texas, Medical Branch
Briefly, three uL of reagents (100 nM EPAC2, 250 nM RAP1B-BODIPY-GDP, 50 uM GDP) were dispensed into a 1536-well Greiner black solid-bottom medium binding assay plate. Controls and test compounds (23 nL) were transferred to the plate via a Kalypsys pin tool equipped with a 1536-pin array. The plates were centrifuged at 1,000 rpm for 15 seconds followed by 5 minute incubation at room temperature. The assay plates were read at 5 minute intervals for 30 minutes in the ViewLux plate reader using 480nm excitation and 540nm emission filters. The results were normalized to the agonist positive control ATA and DMSO.
On the % scale 0 is the no-effect control and ±100 the full control effect; potency means the concentration at half of the fitted maximal effect; tags describe the fitted curve by direction and shape.

Compound	Potency	activity, negative = inhibition
CCCN(CCC)Cc1c(C(=O)N/N=C/CCc2ccccc2)nnn1-c1nonc1N	inconclusive [inhibitor, full curve]	–
C=CCN(C(=O)CSc1nc2ccsc2c(=O)n1Cc1ccccn1)c1ccccc1	inconclusive [inhibitor, single point]	–
Cc1ccc(OCCN2C(=O)C(=O)c3cc(C)ccc32)cc1	inconclusive [inhibitor, partial curve]	–
O=C(NCc1ccc(OC(F)(F)F)cc1)c1cccc2c1C(=O)c1ccc(N3CCCC3)cc1S2(=O)=O	active: 79.4 µM	–
CCCC1=C(C(=O)OCC)C(c2cccs2)n2ncnc2N1 (centres undefined)	inconclusive [inhibitor, full curve]	–
N#C/C(=C/c1cccn1-c1cccc(C(=O)O)c1)c1ccc(Cl)cc1	active: 39.8 µM	–
CCc1nnc(NS(=O)(=O)c2ccc(NCc3cc(Br)ccc3O)cc2)s1	inconclusive [inhibitor, partial curve]	–
CCN1CCc2c(sc(NC(=O)Cc3ccccc3)c2C(N)=O)C1	–	inactive: 5.38%
COC(=O)N/N=C/c1ccc(Oc2ccccc2)cc1	–	inactive: 2.41%
CCOC(=O)c1nc2c(ccc3ccccc32)cc1C	inconclusive [inhibitor, partial curve]	–
CN(C)C(=O)c1sccc1Oc1ccc(F)cc1[N+](=O)[O-]	inconclusive [inhibitor, single point]	–
Cc1cccc(CN2CCN(C3CN(CCc4ccccc4)S(=O)(=O)C3)CC2)c1 (centres undefined)	inconclusive [inhibitor, single point]	–
O=C1c2ccccc2C(=O)N1OS(=O)(=O)c1ccc(F)cc1	–	inactive: 2.58%
O=C(NC(=S)Nc1ccc(S(=O)(=O)Nc2nccs2)cc1)c1ccccc1	–	inactive: -6.45%
CCN(CC)c1ccc(N=C2C=CC(=O)C=C2NC(C)=O)cc1	–	inactive: -3.47%
CN(C)CCN(C(=O)/C=C/c1cccs1)c1nc2ccc(F)cc2s1	–	inactive: -3.14%
CCCCCCSc1ccc([C@@H]2[C@H]3C(=O)N(C)C(=O)[C@H]3[C@]3(C(=O)OC)CCCCN23)cc1	inconclusive [inhibitor, single point]	–
CC(=O)c1sc(NC(=O)c2ccc(Cn3cc(Br)cn3)o2)nc1C	–	inactive: 2.14%
Cc1cc(C)c(O)c(CN(C)Cc2cc(Cl)cc(Cl)c2O)c1	inconclusive [inhibitor, partial curve, poor fit]	–
CCc1ccc(S(=O)(=O)ON2C(=O)c3ccccc3C2=O)cc1	–	inactive: 4.06%
Cc1ccc(N(CC(O)CN2CCCCC2)S(=O)(=O)c2ccc(C)cc2)cc1 (centres undefined)	–	inactive: 0.493%
CC1=CCC[C@@H]2[C@@](C)(CC/C(C)=C/C(=O)O)[C@H](C)CC[C@@]12C	active: 31.6 µM	–
Nc1ccc(N(CCO)CCO)cc1	–	inactive: 15.6%
Cc1cccc(C(=O)c2cnc3ccccc3c2-c2ccccc2)c1	inconclusive [inhibitor, partial curve]	–
CCOc1ccc2[nH]c(C(=O)N/N=C/c3ccc(OC)cc3)cc2c1	inconclusive [inhibitor, single point]	–

Compound	Potency	activity, negative = inhibition
O=C(COc1cccc(C(F)(F)F)c1)Nc1ccc2[nH]ncc2c1	inconclusive [inhibitor, partial curve]	–
CC(=O)N(Cc1cccs1)Cc1cc2ccc(C)c(C)c2nc1Cl	inconclusive [inhibitor, partial curve]	–
COc1ccc(C(=O)/C=C2/C(=O)Nc3ccccc32)c(OC)c1	–	inactive: 8.41%
CCc1ccc(-c2cc(C(F)(F)F)n3nc(C(=O)Nc4cnn(Cc5ccccc5C)c4)cc3n2)s1	–	inactive: 8.68%
COc1ccc(NC(=O)c2ccccn2)cc1S(=O)(=O)N1CCOCC1	inconclusive [inhibitor, single point]	–
Cc1cccc(Oc2ccccc2NC(=O)C2=COCCO2)c1	inconclusive [inhibitor, partial curve]	–
COCCN(C(=O)COC(=O)c1ccccc1NCc1ccco1)c1c(N)n(Cc2ccccc2)c(=O)[nH]c1=O	–	inactive: 12.4%
O=C(NCC1CCCO1)C(Cc1ccccc1)N1C(=O)C2C3C=CC(C4CC34)C2C1=O (centres undefined)	–	inactive: 4.45%
O=C(NC1CCCCC1)c1sc(=S)n2c1[nH]c(=O)c1ccccc12	inconclusive [inhibitor, single point]	–
O=C(NCC1CCN(Cc2ccc(F)cc2)CC1)Nc1cc(F)ccc1F	–	inactive: 4.72%
O=c1cc2oc3cc(O)c(O)cc3c(-c3ccccc3[N+](=O)[O-])c-2cc1O	inconclusive [inhibitor, partial curve]	–
COc1ccc(/C=N/c2oc(-c3ccccc3)cc2C#N)cc1OC	inconclusive [inhibitor, partial curve]	–
COc1cccc(C(C(=O)NCc2ccccc2)N2CCN(c3cccc(C)c3C)CC2)c1OC (centres undefined)	–	inactive: -13.4%
O=C(/C=C/c1c(F)cccc1Cl)c1ccc(O)cc1	–	inactive: -13%
Cn1c2ccc(Cl)cc2c2nc3ccccc3nc21	inconclusive [inhibitor, single point]	–
O=C(COC(=O)CNC(=O)c1ccccc1F)NC1CC1	inconclusive [inhibitor, single point]	–
CCCn1c(Oc2ccccc2)nc2c1c(=O)n(C)c(=O)n2C	inconclusive [inhibitor, full curve]	–
CC1CC1c1ccc(/C=C(\C#N)C(=O)Nc2ccccc2Cl)o1 (centres undefined)	–	inactive: 4.72%
Cc1cnc(NC(=O)c2sc(Nc3ccccc3)nc2N)o1	–	inactive: 12.2%
COC(C(=O)NNS(=O)(=O)c1ccc([N+](=O)[O-])cc1)c1ccccc1 (centres undefined)	–	inactive: 7.54%
O=C(CCl)N(C/C=C/c1ccccc1)c1ccc2c(c1)OCCO2	inconclusive [inhibitor, partial curve]	–
CC(C)C[C@H]1COCCS(=O)(=O)N1Cc1cccc(Cl)c1	inconclusive [inhibitor, partial curve]	–
O=[N+]([O-])c1cccc(-c2nc3ccc([N+](=O)[O-])cc3[nH]2)c1	–	inactive: -9.09%
COc1cccc(CN(C)CC(=O)NCc2ccccc2Cl)c1OC	inconclusive [inhibitor, single point]	–
